According to PubChem BioAssay AID588855 (National Center for Advancing Translational Sciences (NCATS), 2011):
About 5,000 (1.2%) of roughly 410,000 compounds were called active. The inconclusive results got no clear call from the source; some entries with a clear call stand among them for comparison. The call rests on the fitted dose curve; in most records, active means well fitted inhibition curve with a large enough effect; inconclusive means small, poorly fitted or top-dose-only effect; inactive means no such curve, though single readings can be large or run the other way. A potency beside an inconclusive call is a rough fit, not a confirmed value.

experiment: qHTS for Inhibitors of TGF-b; conditions: HepG2 CAGA-GFP TGF-b/SMAD3 reporter, GFP fluorescence, 18 h, TGF-beta stimulated, 500 pg/mL final; series mostly up to 46.1 µM; activity, negative = inhibition: at the top concentration; further: nearly all actives have a fitted effect of over 65% in size
Method in brief: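 Cell-based qHTS in HEPG2 carrying a CAGA-GFP Smad reporter; compounds added before 500 pg/mL final TGF-beta, 18 h incubation at 37 degrees C, GFP fluorescence quantified per cell by imaging cytometry.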
On the % scale 0 is the no-effect control and ±100 the full control effect; potency means the concentration at half of the fitted maximal effect; tags describe the fitted curve by direction and shape.

SMILES	Potency	activity, negative = inhibition
COc1ccccc1NC(=O)C1CCN(C(=O)c2ccc(C(C)(C)C)cc2)CC1	inconclusive: 0.282 µM [inhibitor, full curve, poor fit]	
Cc1nc(N)c2c(Cc3cccc4ccccc34)nn(C(C)(C)C)c2n1	inconclusive: 25.1 µM [inhibitor, single point]	
O=C(CNC(=O)c1[nH]cnc1C(=O)NC(c1ccccc1)c1ccccc1)OCc1ccccc1		inactive: -9.48%
COc1cc(C2NC(=O)C(C#N)=C(S)N2c2ccc(C)cc2)ccc1OC(C)C (configuration not stated)	inconclusive: 11.2 µM [inhibitor, partial curve, poor fit]	
CC1(C(=O)NCc2ccc(F)c(F)c2)Cc2c(-c3cccc(C(F)(F)F)c3)ccnc2O1 (configuration not stated)	inconclusive: 17.8 µM [inhibitor, single point]	
Cc1cc(C)c(S(=O)(=O)NCCc2cc3cc(C)c(C)cc3[nH]c2=O)c(C)c1		inactive: 10.5%
O=S(=O)(NCCc1nnc2ccc(SCc3ccc(C(F)(F)F)cc3)nn12)c1ccccc1	inconclusive: 35.5 µM [inhibitor, single point]	
Cc1sc(C(C2C(=O)CC(C)(C)CC2=O)C2C(=O)CC(C)(C)CC2=O)cc1[N+](=O)[O-]	inconclusive: 35.5 µM [inhibitor, single point]	
NC(=O)C1CCN(C(=O)CCc2nc3sc4c(c3c(=O)[nH]2)CCCC4)CC1	inconclusive: 35.5 µM [inhibitor, single point]	
OC1(c2ccccc2)CC(c2ccccc2)c2ccccc2O1 (configuration not stated)	inconclusive: 31.6 µM [inhibitor, single point]	
CCC1(C)Cc2c(sc3[nH]c(=S)n(Cc4ccccc4)c(=O)c23)CO1 (configuration not stated)	inconclusive: 35.5 µM [inhibitor, partial curve, poor fit]	
CCOc1ccc(S(=O)(=O)N2CCN(C(=O)c3ccc(C)c(S(=O)(=O)N4CCOCC4)c3)CC2)cc1	inconclusive: 35.5 µM [inhibitor, single point]	
CCCC(=O)N(c1ccc2oc(C)c(C(C)=O)c2c1)S(=O)(=O)c1ccc(C)c([N+](=O)[O-])c1		inactive: 1.3%
O=C(NCCN1CCOCC1)c1ccccc1N1C(=O)[C@@H]2Cc3c([nH]c4ccccc34)C(c3ccc(F)cc3)N2C1=O (some centres not stated)		inactive: 8.63%
O=C(Nc1nc(-c2ccc3c(c2)OCCO3)cs1)c1ccc(Br)o1	inconclusive: 35.5 µM [inhibitor, partial curve, poor fit]	
C[C@H](CO)N1C[C@H](C)[C@@H](CN(C)Cc2ccc(Cl)c(Cl)c2)OCc2cnnn2CCCC1=O	inconclusive: 28.2 µM [inhibitor, single point]	
CS(=O)(=O)N1CCC(C(=O)NCc2ccccc2)CC1		inactive: -1.29%
COC(=O)c1ccccc1-c1ccc(C(c2c(C)[nH][nH]c2=O)c2c(C)[nH][nH]c2=O)o1		inactive: -2.58%
O=C(Cn1cc([N+](=O)[O-])cn1)N1CCCc2ccccc21	inconclusive: 35.5 µM [inhibitor, single point]	
COCCCNC(=O)c1c(N)n(-c2cccc(S(N)(=O)=O)c2)c2nc3ccccc3nc12	inconclusive: 12.6 µM [inhibitor, single point]	
Cc1oc2ccc(O)c(CN3CCN(Cc4ccccc4)CC3)c2c1C(=O)Nc1ccccc1	inconclusive: 35.5 µM [inhibitor, single point]	
CCOC(=O)CN(Cc1ccccc1)C(=O)OC(C)(C)C		inactive: 0.224%
CCOC(=O)N1CCN(C2=C(NS(=O)(=O)c3ccc(Br)cc3)C(=O)c3ccccc3C2=O)CC1	inconclusive: 25.1 µM [inhibitor, partial curve, poor fit]	

SMILES	Potency	activity, negative = inhibition
COc1ccccc1-c1ccc(=O)n(CC(=O)NC2CCc3ccccc32)n1 (configuration not stated)		inactive: -8.31%
COc1ccc(Nc2ncnc3scc(-c4ccc(OC)cc4)c23)cc1	inconclusive: 25.1 µM [inhibitor, single point]	
Cn1ncc2c(NCc3ccc(Cl)cc3)ncnc21		inactive: -16.1%
CN1CCN(c2ncnc3c2ncn3[C@H]2CN(Cc3ccc(F)cc3)C[C@@H](CO)O2)CC1		inactive: 31.9%
CS(=O)(=O)c1nc(-c2ccc(F)cc2)cc(C(F)(F)F)n1	inconclusive: 5.62 µM [inhibitor, partial curve, poor fit]	
CCOc1ccc(N=c2cc(-c3ccc(OC)cc3)oc3ccccc23)cc1	inconclusive: 35.5 µM [inhibitor, single point]	
Cc1nc2ccc(NC(=O)c3ccco3)cc2s1		inactive: -5.6%
CCCNC(=O)Cn1c(=O)/c(=C\c2ccc(-c3cccc([N+](=O)[O-])c3)o2)s/c1=C\C(=O)C(C)(C)C		inactive: -5.38%
CCOc1ccccc1NC(=O)CSc1nc2c(oc3ccccc32)c(=O)n1C(C)C	inconclusive: 1.12 µM [inhibitor, partial curve]	
O=C(NCc1ccco1)c1ccc(CS(=O)Cc2ccc(Cl)cc2)o1 (configuration not stated)		inactive: 3.05%
COC(=O)c1[nH]c2ccc(C)cc2c1NC(=O)CN1CCN(c2ccccc2)CC1		inactive: -7.94%
CCOC(=O)c1c(-c2ccc(C)o2)csc1NC(=S)NC(=O)c1cccs1	inconclusive: 6.31 µM [inhibitor, full curve]	
O=C(N/N=C/c1cccs1)c1cc(-c2ccncc2)nc2ccccc12	inconclusive: 6.31 µM [inhibitor, single point]	
Cc1cc(NC(=O)CN2CCN(C/C=C/c3ccccc3)CC2)c([N+](=O)[O-])cc1C	inconclusive: 1.26 µM [inhibitor, partial curve]	
CC(OC(=O)c1cc(O)c2ccccc2c1O)C(=O)Nc1ccc(C(N)=O)cc1 (configuration not stated)	inconclusive: 25.1 µM [inhibitor, single point]	
CC(C)CCC1(C)NC(=O)N(CC(=O)NCC(=O)Nc2ccc(F)c(F)c2F)C1=O (configuration not stated)		inactive: 0.584%
CCOc1ccccc1NC(=O)Cn1cnc2c1c(=O)n(C)c(=O)n2C		inactive: 0.0336%
COc1ccccc1NC(=O)c1cc(S(=O)(=O)NCc2ccccc2)ccc1F	inconclusive: 35.5 µM [inhibitor, single point]	
COc1ccc(N2CC3=C(C2=O)C(c2ccc(O)c(OC)c2)NC(=O)N3C)cc1 (configuration not stated)		inactive: -0.263%
O=C1CC(C(=O)N2CCc3ccccc32)CN1c1ccccc1 (configuration not stated)		inactive: -0.878%
O=C(c1ccc(CS(=O)c2ccccc2Cl)o1)N1CCN(c2ccccc2)CC1 (configuration not stated)	inconclusive: 35.5 µM [inhibitor, single point]	
O=C(NCCc1cccs1)c1ccc(Cn2c(SCc3ccccc3)nc3cccnc32)cc1		inactive: -12.6%
CC(C)CNC(=S)N1CCC(Cc2ccccc2)CC1	inconclusive: 22.4 µM [inhibitor, single point]	

SMILES	Potency	activity, negative = inhibition
O=C1CSc2ccc(S(=O)(=O)NCc3ccccc3Cl)cc2N1		inactive: -0.316%
COc1ccc(N=c2nc(-c3ccc(C)cc3)n(-c3ccccc3)s2)cc1	active: 3.16 µM	
COc1ccccc1N1CC=C(c2cccc([N+](=O)[O-])c2)NC1=O		inactive: 11.6%
Cc1ccc(CNC(=O)c2c(O)nc3ccccn3c2=O)cc1		inactive: 6.29%
COc1ccc(-n2ccc3ccccc32)cc1		inactive: -3.31%
CCOC(=O)C1=C(N)Oc2cc(O)ccc2C1c1cccc(Cl)c1 (configuration not stated)	active: 20 µM	
Cc1nc2ccc(NC(=O)c3ccc(F)c(S(=O)(=O)N4CCOCC4)c3)cc2s1	inconclusive: 3.98 µM [inhibitor, single point]	
Cc1oc2c(c1C(=O)Nc1ccccc1Br)C1=NCCN1C=N2	inconclusive: 3.16 µM [inhibitor, full curve, poor fit]	
CC[C@@]12C(=O)N(c3cccc(C)c3)C(=O)N1[C@H](c1ccc(OC)cc1)[C@@H]1C(=O)N(C(C)(C)C)C(=O)[C@@H]12	inconclusive: 1.41 µM [inhibitor, full curve, poor fit]	
Cc1ccc(O)c(N=Nc2nccs2)c1	inconclusive: 17.8 µM [inhibitor, single point]	
COc1cc(C(=O)CC2(O)C(=O)N(Cc3ccccc3Cl)c3ccccc32)cc(OC)c1OC (configuration not stated)		inactive: 0%
Clc1ccc(OCCOCCN2CCc3ccccc3C2)c(Cl)c1	inconclusive: 31.6 µM [inhibitor, single point]	
NC(=O)c1cccc2c1-c1ccccc1/C2=N/NC(N)=S		inactive: -26.5%
CS(=O)(=O)N(CC(=O)Nc1ccc(Cl)c(Cl)c1)C1CCCCC1	inconclusive: 0.631 µM [inhibitor, full curve, poor fit]	
COc1cc(NC(=O)C2COc3ccccc3O2)c(OC)cc1Cl (configuration not stated)	inconclusive: 8.91 µM [inhibitor, partial curve, poor fit]	
NCCCn1c(C(=O)c2cc(Cl)c(N)c(Cl)c2)c2ccc([N+](=O)[O-])cc2[n+]1[O-]	inconclusive: 12.6 µM [inhibitor, partial curve, poor fit]	
CC(Oc1ccc(Br)cc1)C(=O)Nc1ccc(S(=O)(=O)Nc2nccs2)cc1 (configuration not stated)	inconclusive: 5.01 µM [inhibitor, partial curve, poor fit]	
O=S(=O)(Nc1ccc(-c2nc3cccnc3s2)cc1)c1cc(F)ccc1F	inconclusive: 11.2 µM [inhibitor, partial curve, poor fit]	
CCOc1ccc2oc(C(=O)OCC(=O)N(CC(C)C)c3c(N)n(Cc4ccccc4)c(=O)[nH]c3=O)c(C)c2c1	inconclusive: 3.98 µM [inhibitor, partial curve, poor fit]	
CSc1ccc(CCNC(=O)C2CCCN(c3ncnc4c3nc3n4CCCCC3)C2)cc1 (configuration not stated)		inactive: -16.6%
CCN(CC)CCN(C(=O)CCS(=O)(=O)c1ccccc1)c1nc2c(C)cc(C)cc2s1	inconclusive: 22.4 µM [inhibitor, single point]	
